# Assay results from publication PMC4336329 (PLoS ONE, 2015).
# Among all 310,000 compounds or so, about 14,000 (4.5%) showed an effect of 50% or more. The effect is printed as a negative number. The list shows a part of the results.
# Target: human ether-à-go-go-related gene (hERG) potassium channel (human, UniProt Q12809)
# Experiment: primary screen, population patch clamp on CHO cells stably expressing hERG
# 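Further: peak tail current of the secondary pulse compared with the same well before compound.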
# Chain of human ether-à-go-go-related gene (hERG) potassium channel (Q12809 whole entry, looked up): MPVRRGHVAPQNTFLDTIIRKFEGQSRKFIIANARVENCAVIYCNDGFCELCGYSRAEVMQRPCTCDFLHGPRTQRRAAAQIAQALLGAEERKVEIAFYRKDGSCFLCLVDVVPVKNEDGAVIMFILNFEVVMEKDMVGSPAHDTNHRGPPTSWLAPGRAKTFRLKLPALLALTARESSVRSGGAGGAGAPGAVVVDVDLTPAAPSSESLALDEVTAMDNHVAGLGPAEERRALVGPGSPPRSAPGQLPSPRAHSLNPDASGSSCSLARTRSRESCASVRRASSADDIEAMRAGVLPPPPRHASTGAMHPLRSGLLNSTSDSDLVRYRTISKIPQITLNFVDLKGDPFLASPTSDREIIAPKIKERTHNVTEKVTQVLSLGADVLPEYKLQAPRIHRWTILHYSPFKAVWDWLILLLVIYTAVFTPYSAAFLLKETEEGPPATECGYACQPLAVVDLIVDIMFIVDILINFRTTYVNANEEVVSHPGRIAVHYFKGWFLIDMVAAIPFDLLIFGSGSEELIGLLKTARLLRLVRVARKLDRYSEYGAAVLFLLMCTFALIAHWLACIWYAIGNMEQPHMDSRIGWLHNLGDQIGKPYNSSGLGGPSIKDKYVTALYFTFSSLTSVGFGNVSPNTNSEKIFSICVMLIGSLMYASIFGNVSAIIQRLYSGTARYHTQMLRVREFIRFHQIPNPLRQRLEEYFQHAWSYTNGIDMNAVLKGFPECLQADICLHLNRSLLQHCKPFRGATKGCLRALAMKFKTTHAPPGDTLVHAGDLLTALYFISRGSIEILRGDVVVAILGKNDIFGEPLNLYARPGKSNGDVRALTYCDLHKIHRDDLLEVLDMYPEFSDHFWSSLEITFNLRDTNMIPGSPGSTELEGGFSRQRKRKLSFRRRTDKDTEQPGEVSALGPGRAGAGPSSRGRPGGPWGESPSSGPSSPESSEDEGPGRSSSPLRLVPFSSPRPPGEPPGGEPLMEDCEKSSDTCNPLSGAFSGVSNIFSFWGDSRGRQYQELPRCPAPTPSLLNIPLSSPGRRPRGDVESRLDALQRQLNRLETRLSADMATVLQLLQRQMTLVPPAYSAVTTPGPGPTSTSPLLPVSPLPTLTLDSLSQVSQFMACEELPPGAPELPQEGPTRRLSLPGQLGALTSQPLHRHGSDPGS
row,SMILES,"hERG current change (%, negative = inhibition) at 10uM [%]"
1,Cn1c(=O)[nH]c(=O)c2c1nc(NCCCO)n2Cc1ccc(F)cc1,8.25
2,CCN(CC)S(=O)(=O)c1ccc(-c2ccc(S(=O)(=O)N(CC)CC)cc2)cc1,4.25
3,O=C(NCc1cccnc1)Nc1cccc(NC(=O)NCc2cccnc2)c1F,18.5
4,COc1ccc(OCC(=O)NNC(=O)c2ccc(-c3ccccc3)cc2)cc1,17.3
5,COc1ccc(Nc2ncnc3c2cnn3Cc2ccccc2)cc1OC,-5.97
6,COc1cc(C)ccc1OCCOc1c(C)cc(Cl)cc1Cl,7.91
7,CCOc1cc(-c2nc3ccccn3c2NCC2CCCO2)ccc1O (stereo not shown),-64.7
8,Cc1nc(CSc2nc3[nH]ncc3c(=O)n2-c2ccccc2)cs1,-11.8
9,O=C(CSc1nnc2scc(-c3ccccc3)n12)Nc1ccc2c(c1)OCCO2,-12.8
10,Cc1cc(C(=O)CC#N)c(C)n1CC(F)(F)F,7.38
11,COc1ccc(NC(=O)N2CCCC2)cc1OC,-10.2
12,CN(C)S(=O)(=O)c1ccc2nnn(OCC(=O)NC34CC5CC(CC(C5)C3)C4)c2c1,-51.7
13,Cc1noc(C)c1C(=O)N1CCCC1,-0.487
14,c1cncc(CSc2nnc3ccc(-c4ccco4)nn23)c1,9.05
15,COC(CNC(=O)c1ccc(CS(=O)(=O)c2ccccc2)o1)OC,0.392
16,COc1ccc(C2=NOC(C(=O)Nc3ccc4c(c3)OCCO4)C2)c(OC)c1 (stereo not shown),3.96
17,CCOC(=O)C(Cc1ccccc1)C(=O)Nc1cccc(C)c1 (stereo not shown),-2.68
18,COc1ccc(N2CCN(C(c3cccs3)C(C)NS(=O)(=O)c3ccccc3)CC2)cc1 (stereo not shown),-8.34
19,COc1ccc(N2CC(C(=O)NCCc3c[nH]c4ccccc34)CC2=O)cc1 (stereo not shown),-11
20,CCCn1c(C)cc(/C=C(\C#N)C(=O)OCC(=O)Nc2cccc(S(N)(=O)=O)c2)c1C,7.01
21,COc1cccc(/C=N/n2c(CO)nc3ccccc32)c1OC,22.1
22,COc1ccc(N2C(=O)CCC2=O)cc1,21.3
23,O=C(NCCc1ccccc1)C1CCCN1S(=O)(=O)c1ccccc1 (stereo not shown),7.06
24,COCCCNC(=S)NNC(=O)c1csc(C)n1,16.5
25,CC1CCN(C(=O)CN2C(=O)NC3(CCC(C)CC3)C2=O)CC1 (stereo not shown),-31.8
